± gives the standard deviation of the averaged measurements. Some of the results follow.

The test system of this test is PfAP2-G AP2 domain (GST-tagged). The test is described as follows: gcPBM binding intensity (ln(normalized median fluorescence intensity)); higher = stronger DNA binding. In short, it runs like this: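 GST-tagged P. falciparum DNA-binding domains produced in E. coli were incubated for 1 h on an Agilent 4 × 180k array of primer-extended double-stranded 36-bp intergenic genomic probes with negative controls. Binding intensity is the highest Masliner-normalised natural-log median intensity across replicate spots of either probe orientation, with bound protein detected by Alexa488 anti-GST antibody at 488 nm.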
For “TATATATATTAGTGTGCACACTTTTTATTTTTATCC [CACACA_site8506]”, the “gcPBM binding intensity (ln)” value is 10.5 ± 0.28. The same measure for “ATATATTTATAATAGGTGCATATGTTTTATTTTTCC [GTGCAC_site9849]”: 9.945 ± 0.078; for “TCGTGTTAAATTTTTACACACAAACTTGCAATAATT [CACACA_site3824]”: 10.1 ± 0.21.

For the sequence “AACTATAACTAAAAAAATCACATAAAATATTTTATT [TGCATGCA_negctrl_site363]”, the “gcPBM binding intensity (ln)” value amounted to 9.66 ± 0.14. Take “TATAAATATATTTATACACACATTAGTGTATACATG [CACACA_site7397]”: the “gcPBM binding intensity (ln)” value amounted to 10.2 ± 0.11. The same measure for “AACAATAAAAATAATTGTACAAGTTTAAAAAAAATT [XGTACX_site1987]”: 11.2 ± 0.63.

In the case of “TCTTTAAATTTCTCAACACACAGTTATAAAAAATAA [CACACA_site2856]”, the “gcPBM binding intensity (ln)” value is 9.8 ± 0.085. The same measure for “TATATCTTATTTAACACACACAAAGAAAATAGAAAA [CACACA_site3732]”: 10.2 ± 0.18; for “AATATATATAATTATAGTACAGAAAATTAAAAAAGA [XGTACX_site2943]”: 11.1 ± 0.47. On to “ATATTTTTTTTTGTTAGTACTCATATTTGTAGTTTT [XGTACX_site7280]”, for which the “gcPBM binding intensity (ln)” value is 11.2 ± 0.82. The same measure for “CATTTAAGACAAATTACACACGTATGCCAAATATAT [CACACA_site431]”: 10.5 ± 0.23; for TTTTTAATTTCAATGGTGCAGTAATAATATAATAGT: 10.4 ± 0.46.

“TTTTTTATTTATCCTATATATTACTAAATGAAGAAC [GTGCAC_negctrl_site333]”: the “gcPBM binding intensity (ln)” value is 9.99 ± 0.35.

“TTATTTCAAAGTAAATCAGTAAATATTTGTTTTCTT [CACACA_negctrl_site1572]”: the “gcPBM binding intensity (ln)” value turned out to be 9.54 ± 0.18. The same measure for “TCCTTATTTATATAATGTACTTTTTTTTTTCATTTT [XGTACX_site4275]”: 11.4 ± 0.93. The same measure for “ATGAATCCTTAATATGAACACACAAATATATTACAC [CACACA_site7943]”: 10.3 ± 0.25. “TACAAGTATAAATAAGCACACATGTGGATATGTACA [CACACA_site4229]”: the “gcPBM binding intensity (ln)” value stood at 10.8 ± 0.42. The same measure for “AAAATATAAAATAATGCACACATAAACAAAAAATCA [CACACA_site8382]”: 10.2 ± 0.15.

On to “TAAGAAGTATTTTCCTGTACATATTTTATATGTATG [XGTACX_site4658]”, for which the “gcPBM binding intensity (ln)” value is 11.2 ± 0.68. The same measure for “TTATTTTATATATCACGTACATAGTTGTCTTCTTTT [XGTACX_site2906]”: 11.1 ± 0.72; for “TAAAGTTAAAAATTATGTACATATATATTGTATATT [XGTACX_site5528]”: 11.1 ± 0.62; for “GATAAAATAGGACCATATTCTTTAAAACGATAAAAT [XGTACX_negctrl_site405]”: 10.9 ± 0.64. On to “ATATATATATATTTATGTACATATACATAATGTATA [XGTACX_site6387]”, for which the “gcPBM binding intensity (ln)” value amounted to 11.2 ± 0.76. The same measure for “TATATGTGTGTTATATGTACTTATATATATATATAT [XGTACX_site5570]”: 11.3 ± 0.82. The same measure for ATAATGAACAAAGTAGTGCACTTTCCTTATCTTTTC: 10.4 ± 0.16; for “AAGGTTTAAAATTACTGTACAAATATAAATAAATAT [XGTACX_site3756]”: 10.8 ± 0.5.

For the sequence “ATCAAAAAAAAAAAAAGTACACAAAATTTTTTATTA [XGTACX_site7986]”, the “gcPBM binding intensity (ln)” value is 11.5 ± 0.76. The same measure for “ACTAATATGTATATATATATATATATATATATATAT [CACACA_negctrl_site141]”: 9.85 ± 0.33; for “TACATATTTAAATACTGTACTCAAAAGAATTGTGCA [XGTACX_site2250]”: 11.5 ± 1; for “TATAGTATTCTAAATGCATGTAAATTATGTATATAT [TGCATGCA_site931]”: 9.87 ± 0.057. The same measure for “AAATTCCACGAACACACACACATATAAATAAATAAA [CACACA_site6697]”: 10.2 ± 0.34; for “TAGTAAAAACCAAAATGTACATGTGCCATTTTTTTA [XGTACX_site2630]”: 11 ± 0.62; for “TATATTATACTAAGAAGTACAATATTTTTATTGTAA [XGTACX_site2810]”: 11.4 ± 1.1. On to “CTTATATTGTACAGTACACACCTTTATAATGTTATT [CACACA_site4280]”, for which the “gcPBM binding intensity (ln)” value stood at 11.5 ± 0.71. As for “GATTATTAATAGTAACGTACATATGTTATAAAATAT [XGTACX_site5277]”, the “gcPBM binding intensity (ln)” value amounted to 11.2 ± 0.73.

For the sequence “GTTTATCACAGCCACGCACACATAATATCTGTATAT [CACACA_site5929]”, the “gcPBM binding intensity (ln)” value was determined as 10.2 ± 0.18. The same measure for “TTGTTTCTCTTTAAAAGTACAAAAATGGTTACATAT [XGTACX_site3109]”: 11.2 ± 0.67.

Take “TAGATTTTTTAATGTTGTACAAATATACGATATATA [XGTACX_site3258]”: the “gcPBM binding intensity (ln)” value stood at 11.2 ± 0.7. The same measure for “ACTATTCATGCATATACACACACATATATATATATT [CACACA_site9309]”: 10.5 ± 0.37; for “ACATCAAGCAGACACACACACACACGCACACGCACA [CACACA_site6309]”: 10.5 ± 0.28. The same measure for “CAATATTTTATTTAAGCATGCTCTAGGGTGTAAAAG [TGCATGCA_site1001]”: 10.2 ± 0.16. The same measure for “CAATTTCTCTTAATTTGTACATATATGTTATACAAA [XGTACX_site3231]”: 11 ± 0.22; for “ACTTTAAACAAAAAAAGTACTCTTTAATGAATATAT [XGTACX_site7176]”: 11.4 ± 0.82; for “TATATATATATATATATATATATATATATATGTTGT [TGCATGCA_negctrl_site24]”: 9.81 ± 0.23. As to “CCAACTAAAAAGGAATGTACATAGTTATGGTTGGAA [XGTACX_site8762]”, the “gcPBM binding intensity (ln)” value is 10.7 ± 0.32.

The values are drawn from the supplement of paper PMC11417369.
